Test results published in the supplement of paper PMC4967469.

How the values were obtained:
Experiment in all cases: Viability of human cancer cell lines after 72 h of drug (GDSC screen)
NPK76-II-72-1 = compound: COc1cc(C(=O)NC2CCN(C)CC2)ccc1Nc1ncc2c(n1)N(C1CCCC1)C(C)CC(=O)N2C [NPK76-II-72-1]; conditions: top dose 10.24 µM; top dose inferred
Experimental: (§1)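 Human cancer cell lines in 384-well plates, medium with 10% serum, drug for 72 h over a 256-fold dose range (nine 2-fold or five 4-fold steps up to the top dose). Adherent lines were fixed and stained with the nucleic acid dye Syto60, suspension lines read with resazurin; signal relative to control wells, capped at 0 and 100%. One two-parameter sigmoid per drug and line, fitted in a mixed model over all curves with the slope shared within a line.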

Bexarotene = compound: C=C(c1ccc(C(=O)O)cc1)c1cc2c(cc1C)C(C)(C)CCC2(C)C [Bexarotene]; conditions: top dose 8 µM
Experimental: as §1

YK 4-279 = compound: COc1ccc(C(=O)CC2(O)C(=O)Nc3c(Cl)ccc(Cl)c32)cc1 [YK 4-279]; conditions: top dose 10 µM
Experimental: as §1

GSK-650394 = compound: O=C(O)c1ccc(-c2c[nH]c3ncc(-c4ccccc4)cc23)cc1C1CCCC1 [GSK-650394]; conditions: top dose 16 µM; top dose inferred
Experimental: as §1

AZD7762 = compound: NC(=O)Nc1cc(-c2cccc(F)c2)sc1C(=O)N[C@H]1CCCNC1 [AZD7762]; conditions: top dose 2 µM
Experimental: as §1

XAV 939 = compound: Oc1nc(-c2ccc(C(F)(F)F)cc2)nc2c1CSCC2 [XAV 939]; conditions: top dose 5 µM; top dose inferred
Experimental: as §1

BMS-345541 = compound: Cc1ccc2nc(NCCN)c3ncc(C)n3c2c1 [BMS-345541]; conditions: top dose 16 µM
Experimental: as §1

Cell Line	AUC (NPK76-II-72-1)	IC50 (NPK76-II-72-1) [µM]	AUC (Bexarotene)	IC50 (Bexarotene) [µM]	AUC (YK 4-279)	IC50 (YK 4-279) [µM]	AUC (GSK-650394)	IC50 (GSK-650394) [µM]	AUC (AZD7762)	IC50 (AZD7762) [µM]	AUC (XAV 939)	IC50 (XAV 939) [µM]	AUC (BMS-345541)	IC50 (BMS-345541) [µM]
22RV1 (prostate, adherent)	0.849	> 10.2	0.932	> 8	0.874	> 10	0.934	> 16	0.868	> 2	0.962	> 5	0.846	> 16
A427 (non-small cell lung carcinoma, adherent)	0.878	> 10.2			0.713	2.51	0.576	1.62	0.569	0.193	0.95	> 5	0.917	> 16
A431 (skin, adherent)	0.719	2.58	0.951	> 8	0.646	1.56	0.564	1.49	0.795	0.885	0.986	> 5	0.678	3.06
A2780 (ovary, semi-adherent)	0.773	4.14	0.964	> 8	0.733	2.97	0.892	> 16	0.777	0.83	0.972	> 5	0.617	2.13
ACHN (kidney, adherent)	0.964	> 10.2	0.945	> 8	0.819	6.74	0.789	8.15	0.52	0.143	0.96	> 5	0.893	> 16
AsPC-1 (pancreas, adherent)	0.923	> 10.2	0.975	> 8	0.823	> 10	0.966	> 16	0.695	0.659	0.874	> 5	0.919	> 16
CCRF-CEM (lymphoblastic leukaemia, suspension)	0.487	0.593	0.905	7.77	0.786	3.59			0.338	0.0483	0.985	> 5	0.886	12.8
HL-60 (acute myeloid leukaemia, suspension)	0.847	6.43			0.857	6.82	0.94	> 16	0.641	0.294	0.98	> 5	0.883	14.1
HeLa (cervix, adherent)	0.944	> 10.2			0.629	1.39	0.742	4.75	0.751	0.631	0.899	> 5	0.902	> 16
LN-229 (glioma, adherent)	0.985	> 10.2	0.975	> 8	0.703	2.32	0.956	> 16	0.698	0.449	0.983	> 5		
MCF7 (breast, adherent)	0.986	> 10.2			0.786	4.48	0.555		0.936	> 2	0.976	> 5	0.982	> 16
MDA-MB-468 (breast, adherent)	0.866	8.53	0.967	> 8	0.75	3.16			0.778	0.778	0.978	> 5	0.895	> 16
NCI-H358 (lung adenocarcinoma, adherent)	0.732	3.18			0.792	5.1	0.749	5.69	0.797	1.07	0.965	> 5	0.748	5.64
RPMI-8226 (myeloma, suspension)	0.891	9.16			0.637	1.42	0.968	> 16	0.556		0.99	> 5		
SU-DHL-5 (B-cell lymphoma, suspension)	0.627	1.31	0.973	> 8	0.657	1.51	0.746	4.05	0.279	0.0357			0.69	2.92
SW620 (large intestine, adherent)	0.874	8			0.641	1.45	0.645	2.39	0.738	0.54	0.989	> 5	0.708	3.55
T47D (breast, adherent)	0.942	> 10.2			0.871	> 10	0.969	> 16	0.978	> 2	0.89	> 5	0.919	> 16
THP-1 (acute myeloid leukaemia, suspension)	0.784	3.9			0.926	> 10	0.952	> 16	0.697	0.419	0.985	> 5		
U-87-MG (glioma, adherent)	0.956	> 10.2			0.831	7.92	0.932	> 16	0.822	1.45	0.891	> 5	0.938	> 16
YH-13 (glioma, adherent)	0.928	> 10.2			0.661	1.8			0.553	0.175	0.985	> 5	0.927	> 16

Lines with a small IC50 respond at low doses; where the fit passes the top or lowest dose, that dose stands as a limit. AUC sums up the same curve from the lowest dose to the 256-fold higher top dose: 1 means no effect, lower means more sensitive. For some assays here: Where the top dose is marked as inferred, it is not printed in the source and was worked back from the curve model.
